# Test results reported in the supplement of paper PMC12632987.
# Over roughly 4,500 sequences, “median log2 fold change of GCK-ALFA target abundance (FLAG IP / Myc IP barcode read proportion)” has its median near 0.078; the lowest 2% begin near -0.6. Some of the results follow.
# B1: GBRAP_16_4997 (protein)
# chain: EEILARTEGAAEFAKLIADALEGGDPELVKKAKELAEKLKRAAELIKKGGEKEEILKELEEALKLAEELAKLLAATDPEGAAAAQTLAKEIKEIIKEVKK
# B2: GBRAP_125_3105 (protein)
# chain: MEEEILEALKLLAKALGFDDEDAEEAARLAREFSVKMTLYALLKAEGEEELADLVEKLTEEQAKKVLLKVAEWLKKNPNATKEEVLKKLKEVILEELEKA
# B3: GBRAP_186_5373 (protein)
# chain: SEELEEKIDEIIEELEAEGYRVIVVDTITELTPEEKEAIRDDAEAVGELAKETGQKWALVIPFAGTAEEVEEARAFVAELNKEFSAKYGVKVRLAGEVVP
# B4: GBRAP_43_5758 (protein)
# chain: SKELVEGALDFALLAAESPEISEETKVKAIIAAFRLAADEGYLDKELLKKVVEAAAKNLSAESLKKIADELEKLAKKYPELAEKFKEAAKKLREAIKKKE
# B5: GBRAP_11_2675 (protein)
# chain: KKEALKKAAELAKAAAAAVDALIAAGVTDAALQAAAGKLLEELKKLVEENADEASKKDVEVAVELWEKLKADPENAAEYAEQLRAALRVLEGNFLLEIEE
# B6: GBRAP_128_3395 (protein)
# chain: SEEEKLKEAFELIDEIINSDVEKAKELAKKLMELFGTMNKETREKVVEYIEEKLPKLTAEKLEVLADVLEEQRPKLDPYGQELANEMLVEALNEAEEKEE
# B7: GBRAP_160_4218 (protein)
# chain: MELVKKLVEIVREEFEEALELIEGESPEERRVILDVAVGNVILESMEIEGVTDEMEETVEEMSEELAEELLEAADESPEERRELIEERVEELEKELKKLE
# B8: GBRAP_128_3394 (protein)
# chain: SQEEKLKEALELIDKITEADLETARELARELMELFGELDLESAEKVADYLESKLPELSAEKLDVLADVLREERPKLDPEKAALVNGVEVEALNEAEEKEE
# Target: GABARAP, O95166
# Sequence (O95166 whole entry, the tested form may be a part): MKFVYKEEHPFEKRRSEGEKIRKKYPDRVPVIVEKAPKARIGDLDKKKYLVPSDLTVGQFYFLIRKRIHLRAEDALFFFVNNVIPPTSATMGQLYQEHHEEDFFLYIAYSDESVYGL
# Assay: median log2 fold change of GCK-ALFA target abundance (FLAG IP / Myc IP barcode read proportion) (log2 ratio); each designed protein is fused to an ALFA-tag nanobody in HEK293 cells to bring the named protein to FLAG-tagged glucokinase (GCK); Myc marks an untargeted standard; higher = target protein stabilised (more abundant)
# Details: target protein: 3xFLAG-MCP-GCK-ALFA reporter; HEK293 landing pad (RPLP)
# Summary of the method: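 Binders fused to an ALFA nanobody were recombined as a library into HEK293 landing-pad cells, which were induced with 2 μg mL^−1 doxycycline and then transfected to express a FLAG-tagged target and a Myc-tagged standard. After 48 h, circular RNA barcodes recovered by anti-FLAG and anti-Myc immunoprecipitation of lysates were reverse transcribed, amplified and sequenced. Each binder's target abundance is the median log2 ratio of FLAG to Myc barcode read proportions, from barcodes present at ≥10^−7 in both replicates, binders carrying ≥3 barcodes per replicate, a 10^−6 pseudocount and pooled replicates.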
row,Binder,median log2 fold change
1,B1,0.245
2,B2,-0.694
3,B3,-0.206
4,B4,0.154
5,B5,0.187
6,B6,0.133
7,B7,-0.299
8,B8,0.206
